# Data: PMC3798644, “Molecular Basis for Oligomeric-DNA Binding and Episome Maintenance by KSHV LANA” (PLoS Pathogens, 2013)
# T1: LANA C-terminal DNA binding domain (residues 1011-1153), wild type (Kaposi's sarcoma-associated herpesvirus …, UniProt Q76SB0 1011-1153)
# T1 construct: source: E. coli, purified (Ni-NTA, tag cleaved with ULP1, second Ni-NTA, Superdex 75)
# T1 sequence: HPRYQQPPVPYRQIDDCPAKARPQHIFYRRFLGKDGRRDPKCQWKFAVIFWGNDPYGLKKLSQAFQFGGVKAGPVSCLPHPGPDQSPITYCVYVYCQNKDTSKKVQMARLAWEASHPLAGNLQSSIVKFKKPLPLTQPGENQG
# Target: T1, LANA C-terminal DNA binding domain …
# Assay: pull-down; His-SMT3-BRD ET domain held on Ni-NTA resin; untagged LANADBD or EBNA1DBD added; 200 mM NaCl, 20 mM HEPES, 5 mM BME, pH 8.0; washed with 10 CV; eluted with 300 mM imidazole
# Details: both partners purified
binder,measurement,value
"His-SMT3-BRD4 ET domain, short form (BRD4 […]) (domain or fragment, also called BRD4S) not shown",binding result,binds
